# This is one part of the list.
# B1: F17aG (Escherichia coli), Q99003 (protein)
# chain: MTNFYKVFLAVFILVCCNISQAAVSFIGSTENDVGPSLGSYSRTHAMDNLPFVYDTRNKIGYQNANVWHISKGFCVGLDGKVDLPVVGSLDGQSIYGLTEEVGLLIWMGDTKYSRGTAMSGNSWENVFSGWCVGANTASTQGLSVRVTPVILKRNSSARYSVQKTSIGSIRMRPYNGSSAGSVQTTVNFSLNPFTLNDTVTSCRLLTPSAVNVSLAAISAGQLPSSGDEVVAGTTSLKLQCDAGVTVWATLTDATTPSNRSDILTLTGASTATGVGLRIYKNTDSTPLKFGPDSPVKGNENQWQLSTGTETSPSVRLYVKYVNTGEGINPGTVNGISTFTFSYQ
# Legend:
# Assay in all cases: glycan array binding signal (z-score within array); higher = stronger binding
# Details in all cases: glycan notation: IUPAC condensed, linker removed
# [1] = biological target: GlcNAc(a1-4)Gal(b1-4)GlcNAc
# Summary of the method: (§1)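 Negative Z-scores can be read as non-binding. The Z-score is calculated within each array and then averaged across arrays of one protein sequence at different concentrations or buffers and across linkers. Arrays, 3228 in all, were curated from the Consortium for Functional Glycomics database and kept only where the protein sequence was available.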
# [2] = biological target: GlcNAc(a1-4)Gal(b1-4)GlcNAc(b1-3)Gal(b1-4)Glc
# Summary of the method: as §1
# [3] = biological target: GlcNAc(a1-4)Gal(b1-4)GlcNAc(b1-3)Gal(b1-4)GlcNAc
# Summary of the method: as §1
# [4] = biological target: GlcNAc(a1-4)Gal(b1-4)GlcNAc(b1-3)Gal(b1-4)GlcNAc(b1-3)Gal(b1-4)GlcNAc
# Summary of the method: as §1
# [5] = biological target: GlcNAc(a1-4)Gal(b1-4)GlcNAc(b1-3)Gal(b1-4)[Fuc(a1-3)]GlcNAc(b1-3)Gal(b1-4)[Fuc(a1-3)]GlcNAc
# Summary of the method: as §1
# [6] = biological target: GlcNAc(a1-6)Gal(b1-4)GlcNAc
# Summary of the method: as §1
# [7] = biological target: GlcNAc(b1-2)Gal(b1-3)GalNAc
# Summary of the method: as §1
# [8] = biological target: GlcNAc(b1-2)Man(a1-3)[GlcNAc(b1-2)Man(a1-6)]Man(b1-4)GlcNAc(b1-4)GlcNAc
# Summary of the method: as §1
# [9] = biological target: GlcNAc(b1-2)Man(a1-3)[GlcNAc(b1-2)Man(a1-6)]Man(b1-4)GlcNAc(b1-4)[Fuc(a1-6)]GlcNAc
# Summary of the method: as §1
# [10] = biological target: GlcNAc(b1-2)Man(a1-3)[GlcNAc(b1-4)][GlcNAc(b1-2)Man(a1-6)]Man(b1-4)GlcNAc(b1-4)GlcNAc
# Summary of the method: as §1
# [11] = biological target: GlcNAc(b1-2)[GlcNAc(b1-4)]Man(a1-3)[GlcNAc(b1-2)Man(a1-6)]Man(b1-4)GlcNAc(b1-4)GlcNAc
# Summary of the method: as §1
# [12] = biological target: GlcNAc(b1-2)[GlcNAc(b1-4)]Man(a1-3)[GlcNAc(b1-4)][GlcNAc(b1-2)Man(a1-6)]Man(b1-4)GlcNAc(b1-4)GlcNAc
# Summary of the method: as §1
# [13] = biological target: GlcNAc(b1-2)[GlcNAc(b1-4)]Man(a1-3)[GlcNAc(b1-4)][GlcNAc(b1-2)[GlcNAc(b1-6)]Man(a1-6)]Man(b1-4)GlcNAc(b1-4)GlcNAc
# Summary of the method: as §1
# [14] = biological target: GlcNAc(b1-2)[GlcNAc(b1-6)]Man(a1-6)[GlcNAc(b1-2)Man(a1-3)]Man(b1-4)GlcNAc(b1-4)GlcNAc
# Summary of the method: as §1
# [15] = biological target: GlcNAc(b1-2)[GlcNAc(b1-6)]Man(a1-6)[GlcNAc(b1-2)Man(a1-3)][GlcNAc(b1-4)]Man(b1-4)GlcNAc(b1-4)GlcNAc
# Summary of the method: as §1
# [16] = biological target: GlcNAc(b1-3)Gal
# Summary of the method: as §1
# [17] = biological target: GlcNAc(b1-3)Gal(b1-3)GalNAc
# Summary of the method: as §1
# [18] = biological target: GlcNAc(b1-3)Gal(b1-4)Glc
# Summary of the method: as §1
# [19] = biological target: GlcNAc(b1-3)Gal(b1-4)GlcNAc
# Summary of the method: as §1
# [20] = biological target: GlcNAc(b1-3)Gal(b1-4)GlcNAc(b1-3)Gal(b1-4)GlcNAc
# Summary of the method: as §1
# [21] = biological target: GlcNAc(b1-3)GalNAc
# Summary of the method: as §1
# [22] = biological target: GlcNAc(b1-3)Man
# Summary of the method: as §1
# [23] = biological target: GlcNAc(b1-3)[GlcNAc(b1-4)][GlcNAc(b1-6)]GlcNAc
# Summary of the method: as §1
# [24] = biological target: GlcNAc(b1-3)[GlcNAc(b1-6)]Gal(b1-4)GlcNAc
# Summary of the method: as §1
# [25] = biological target: GlcNAc(b1-3)[GlcNAc(b1-6)]GalNAc
# Summary of the method: as §1
# [26] = biological target: GlcNAc(b1-3)[GlcNAc(b1-6)]GlcNAc(b1-4)GlcNAc
# Summary of the method: as §1
# [27] = biological target: GlcNAc(b1-4)Gal(b1-4)GlcNAc
# Summary of the method: as §1
# [28] = biological target: GlcNAc(b1-4)GlcNAc
# Summary of the method: as §1
# [29] = biological target: GlcNAc(b1-4)GlcNAc(b1-4)GlcNAc
# Summary of the method: as §1
# [30] = biological target: GlcNAc(b1-4)GlcNAc(b1-4)GlcNAc(b1-4)GlcNAc(b1-4)GlcNAc
# Summary of the method: as §1
# [31] = biological target: GlcNAc(b1-4)GlcNAc(b1-4)GlcNAc(b1-4)GlcNAc(b1-4)GlcNAc(b1-4)GlcNAc
# Summary of the method: as §1
# [32] = biological target: GlcNAc(b1-4)[GlcNAc(b1-6)]GalNAc
# Summary of the method: as §1
# [33] = biological target: GlcNAc(b1-6)Gal(b1-4)GlcNAc
# Summary of the method: as §1
# [34] = biological target: GlcNAc(b1-6)GalNAc
# Summary of the method: as §1
# [35] = biological target: GlcNAc3Prop(b1-4)GlcNAc
# Summary of the method: as §1
# [36] = biological target: GlcNAc6S(b1-3)Gal(b1-4)GlcNAc
# Summary of the method: as §1
# [37] = biological target: Kdn(a2-3)Gal(b1-3)GalNAc
# Summary of the method: as §1
binder,measurement,setting,value
B1,glycan array binding signal (z-score),[1],-0.139
same,glycan array binding signal (z-score),[2],-0.126
same,glycan array binding signal (z-score),[3],-0.182
same,glycan array binding signal (z-score),[4],-0.151
same,glycan array binding signal (z-score),[5],-0.137
same,glycan array binding signal (z-score),[6],-0.243
same,glycan array binding signal (z-score),[7],0.063
same,glycan array binding signal (z-score),[8],-0.203
same,glycan array binding signal (z-score),[9],-0.17
same,glycan array binding signal (z-score),[10],-0.117
same,glycan array binding signal (z-score),[11],-0.177
same,glycan array binding signal (z-score),[12],-0.161
same,glycan array binding signal (z-score),[13],-0.177
same,glycan array binding signal (z-score),[14],-0.16
same,glycan array binding signal (z-score),[15],-0.156
same,glycan array binding signal (z-score),[16],3.9
same,glycan array binding signal (z-score),[17],0.307
same,glycan array binding signal (z-score),[18],8.79
same,glycan array binding signal (z-score),[19],4.77
same,glycan array binding signal (z-score),[20],0.427
same,glycan array binding signal (z-score),[21],0.898
same,glycan array binding signal (z-score),[22],-0.036
same,glycan array binding signal (z-score),[23],-0.1
same,glycan array binding signal (z-score),[24],5.68
same,glycan array binding signal (z-score),[25],1.32
same,glycan array binding signal (z-score),[26],2.15
same,glycan array binding signal (z-score),[27],0.526
same,glycan array binding signal (z-score),[28],-0.171
same,glycan array binding signal (z-score),[29],-0.03
same,glycan array binding signal (z-score),[30],-0.231
same,glycan array binding signal (z-score),[31],-0.069
same,glycan array binding signal (z-score),[32],0.015
same,glycan array binding signal (z-score),[33],0.342
same,glycan array binding signal (z-score),[34],0.507
same,glycan array binding signal (z-score),[35],11.7
same,glycan array binding signal (z-score),[36],-0.17
same,glycan array binding signal (z-score),[37],-0.169

# From the supplement of paper PMC8728848
